The values below come from ChEMBL document CHEMBL4888484, “Replenishing the malaria drug discovery pipeline: Screening and hit evaluation of the MMV Hit Generation Library 1 (HGL1) against asexual blood stage Plasmodium falciparum ,using a nano luciferase reporter read-out” (2022).

The structures appear in SMILES notation. In all, about 150,000 compounds went through this assay and about 540 (0.36%) showed an effect of 50% or more. The list shows a part of the results.

In the experiment the test system is Plasmodium falciparum. The experiment is described as follows: Primary screen in NF54 nanoGlo assay, in single point, at 2uM, 72h; a lower Z score goes with more inhibition. The class given is functional, Erythrocyte. The conditions noted are these: timepoint 72 hour.
Regarding `Cc1nc(C)c(C(=O)N(CCN2CCOCC2)c2ccccc2)s1`, the “% Inhibition” value is -2% and the Z score was 0.26.
For `Cc1ccccc1CNC(=O)c1ccccc1NC(=O)C1CC=CCC1C(=O)O` (stereo unspecified) the same measures were 33% and -4.24.
On to `CC(C)(C#N)CS(=O)(=O)N1CCN(c2cccc3[nH]cnc23)CC1`, for which the “% Inhibition” value is -7% and the Z score is recorded as 1.45.
Take `Cc1nnc([C@@H]2CC3(CCN(CCc4ccccc4)CC3)CN2CCc2ccccc2)o1`: the “% Inhibition” value was -3% and the Z score was determined as 0.42.
`COc1ccc(Cc2nc(-c3cccc(-c4csc(C)n4)c3)no2)cc1`: the “% Inhibition” value is recorded as -2% and the Z score was 0.25.
For `C=CCN(C(=O)CCn1c(C)cc(C)nc1=O)C1CCCC1`, the “% Inhibition” value is on record as -5% and the Z score is given as 0.96.
With `Cc1ccc(CC(=O)Nc2nc(-c3ccccc3)c(Br)s2)cn1`, the “% Inhibition” value is -10% and the Z score stood at 1.58.
Regarding `Cc1cccc([C@H]2CCCN(C(=O)CCc3nncn3C)C2)c1`, the “% Inhibition” value is given as -5% and the Z score is recorded as 0.92.
For `CC[C@]1(N2CCN(S(=O)(=O)c3ccc(F)c(C)c3)CC2)CCN(S(C)(=O)=O)C1` the same measures were 1% and -0.06.
Taken in the same sequence, the figures for `Cc1cnc(N2CCCC2CO)nc1N1CCCC1CO` (stereo unspecified) were -5% and 0.99.
On to `Cc1ccc2c(c1)c(CNc1ncnc3c1CCNCC3)nn2C`, for which the “% Inhibition” value is reported as -12% and the Z score stood at 2.34.
As to `N#Cc1ccc(Oc2ccc(NC(=O)N3CCCC3)cc2)cc1`, the “% Inhibition” value was 2% and the Z score was -0.27.
Taken in the same sequence, the figures for `Cc1nc(NCC(C)C)sc1C(=O)Nc1cccc2[nH]ccc12` were 1% and -0.12.
Take `CCn1cnnc1CCn1cnc(-c2ccccc2)c1[C@H]1CCOC1`: the “% Inhibition” value came out at 4% and the Z score is on record as -0.38.
Regarding `CCc1ccc(C(=O)N2C[C@@H](CN3CCCCCC3)[C@@H](CO)C2)s1`, the “% Inhibition” value is on record as -8% and the Z score was 1.39.
For `Cc1ccc2cc3c(nc2c1)N(C(=O)c1ccc(F)cc1)CC3` the same measures were -14% and 1.55.
`CC[C@H](C)Oc1cc(CNC(=O)Nc2cnn(C)c2)ccn1`: the “% Inhibition” value is listed as -9% and the Z score came to 1.69.
As to `O=S(=O)(Nc1cc(-c2ccsc2)no1)c1ccc(F)c(F)c1`, the “% Inhibition” value is -3% and the Z score stood at 0.5.
`O=C(N[C@@H](CC1CCC1)c1ccccc1)c1cc2c(=O)[nH]cnc2cn1`: the “% Inhibition” value is 3% and the Z score is listed as -0.49.
As to `O=S(=O)(Nc1nc2ccccc2nc1Nc1ccc(F)c(Cl)c1)c1cccc2c1N=S=N2`, the “% Inhibition” value is -7% and the Z score is 0.9.
In the case of `CCOC(=O)C(C)N1CC(C)OC(C2CC2)C1` (stereo unspecified), the “% Inhibition” value is recorded as -5% and the Z score worked out at 0.61.
For `CCOCC(=O)N1CCC[C@H]1c1nn(CCOc2ccccc2)c2c1COCC2`, the “% Inhibition” value stood at 30% and the Z score is listed as -2.9.
Taken in the same sequence, the figures for `CN(C)S(=O)(=O)c1ccc(C(=O)Nc2cnoc2)cc1` were -7% and 1.2.
Consider `CCN(CC)Cc1cnc2c(C(=O)N3CCCCCCC3)cnn2c1`, for which the “% Inhibition” value was 3% and the Z score is reported as -0.44.
Regarding `O=C(Nc1cnc2nc[nH]n2c1=O)c1ccc(F)cc1`, the “% Inhibition” value worked out at 0% and the Z score worked out at 0.04.
In the case of `CCN(C)c1nc(-c2cccc(C)c2)ncc1C(=O)Nc1ccc(F)cc1`, the “% Inhibition” value is listed as -22% and the Z score turned out to be 4.19.
Turning to `O=C(c1ccc2c(c1)CCO2)N1C[C@H]2C[C@H](O)[C@H](O)C[C@H]2C1`, the “% Inhibition” value is -4% and the Z score is 0.71.
For the molecule `COc1ccccc1CCCn1cccc(C)c1=O`, the “% Inhibition” value is given as 0% and the Z score worked out at 0.04.
As for `CCc1nc(NCCNC(=O)c2ccco2)c2cc(Cl)cc(Cl)c2n1`, the “% Inhibition” value was found to be 3% and the Z score is on record as -0.35.
With `Cc1ccc(NS(C)(=O)=O)c(C(=O)NCC(=O)NC(C)(C)C)c1`, the “% Inhibition” value came out at 2% and the Z score is listed as -0.27.
For `Cc1ccsc1C(=O)N1C[C@H]2CCC[C@@H](O)[C@H]2C1`, the “% Inhibition” value is on record as -12% and the Z score is given as 1.15.
For the molecule `Cc1ccc2[nH]cc(-c3cnn4cccnc34)c2c1`, the “% Inhibition” value was 7% and the Z score is -0.67.
`Cc1ccc(CN2CCC(CN(C)C(=O)C3CCCC(=O)N3)C2)s1` (stereo unspecified): the “% Inhibition” value amounted to 5% and the Z score was -0.67.
Turning to `CCCCOc1c(Cl)cc(CNCC)cc1Cl`, the “% Inhibition” value came out at 9% and the Z score is recorded as -1.58.
For `O=C(NCc1c[nH]nc1-c1ccc(F)cc1)c1cn(CC2CCCCC2)nn1` the same measures were -7% and 1.21.
For `COC1(CNC(=O)NC[C@H](C)c2ccsc2)CCC1`, the “% Inhibition” value is on record as 6% and the Z score was -0.62.
In the case of `O=C(c1cc(Cl)ccc1Cl)N1CCCN(CCn2cccn2)CC1`, the “% Inhibition” value was -21% and the Z score is given as 4.07.
For `Cc1cnc(C2CC2)n1CCNC(=O)C(C)C` the same measures were -8% and 1.43.
For `C[C@](NC(=O)CCCc1nc(C2CC2)no1)(C(=O)O)c1cc(F)ccc1F` the same measures were -23% and 2.36.
Taken in the same sequence, the figures for `Cn1nnc2ccc(-c3noc(C4CC4)n3)cc21` were -9% and 1.
Turning to `O=C(Nc1nc(C(=O)Nc2ccc(Br)cc2)co1)c1ccncc1`, the “% Inhibition” value stood at 8% and the Z score was -1.04.
For `O=C(Nc1cccc(-c2nnco2)c1)[C@@H]1CCCN1S(=O)(=O)c1ccccc1F`, the “% Inhibition” value is -10% and the Z score is given as 1.32.
Turning to `CN1c2cccnc2CN(C2CCCC2)CC[C@H]1CO`, the “% Inhibition” value is reported as -9% and the Z score is given as 1.3.
